# Assay results reported in publication PMC4336329 (PLoS ONE, 2015).
# In all, about 310,000 compounds went through this assay and about 2,200 (0.71%) showed an effect of 50% or more. Effects have a minus sign here. The list shows a part of the results.
# Biological target: human ether-à-go-go-related gene (hERG) potassium channel (human, UniProt Q12809)
# Assay: primary screen, population patch clamp on CHO cells stably expressing hERG
# human ether-à-go-go-related gene (hERG) potassium channel, sequence (Q12809 whole entry, looked up): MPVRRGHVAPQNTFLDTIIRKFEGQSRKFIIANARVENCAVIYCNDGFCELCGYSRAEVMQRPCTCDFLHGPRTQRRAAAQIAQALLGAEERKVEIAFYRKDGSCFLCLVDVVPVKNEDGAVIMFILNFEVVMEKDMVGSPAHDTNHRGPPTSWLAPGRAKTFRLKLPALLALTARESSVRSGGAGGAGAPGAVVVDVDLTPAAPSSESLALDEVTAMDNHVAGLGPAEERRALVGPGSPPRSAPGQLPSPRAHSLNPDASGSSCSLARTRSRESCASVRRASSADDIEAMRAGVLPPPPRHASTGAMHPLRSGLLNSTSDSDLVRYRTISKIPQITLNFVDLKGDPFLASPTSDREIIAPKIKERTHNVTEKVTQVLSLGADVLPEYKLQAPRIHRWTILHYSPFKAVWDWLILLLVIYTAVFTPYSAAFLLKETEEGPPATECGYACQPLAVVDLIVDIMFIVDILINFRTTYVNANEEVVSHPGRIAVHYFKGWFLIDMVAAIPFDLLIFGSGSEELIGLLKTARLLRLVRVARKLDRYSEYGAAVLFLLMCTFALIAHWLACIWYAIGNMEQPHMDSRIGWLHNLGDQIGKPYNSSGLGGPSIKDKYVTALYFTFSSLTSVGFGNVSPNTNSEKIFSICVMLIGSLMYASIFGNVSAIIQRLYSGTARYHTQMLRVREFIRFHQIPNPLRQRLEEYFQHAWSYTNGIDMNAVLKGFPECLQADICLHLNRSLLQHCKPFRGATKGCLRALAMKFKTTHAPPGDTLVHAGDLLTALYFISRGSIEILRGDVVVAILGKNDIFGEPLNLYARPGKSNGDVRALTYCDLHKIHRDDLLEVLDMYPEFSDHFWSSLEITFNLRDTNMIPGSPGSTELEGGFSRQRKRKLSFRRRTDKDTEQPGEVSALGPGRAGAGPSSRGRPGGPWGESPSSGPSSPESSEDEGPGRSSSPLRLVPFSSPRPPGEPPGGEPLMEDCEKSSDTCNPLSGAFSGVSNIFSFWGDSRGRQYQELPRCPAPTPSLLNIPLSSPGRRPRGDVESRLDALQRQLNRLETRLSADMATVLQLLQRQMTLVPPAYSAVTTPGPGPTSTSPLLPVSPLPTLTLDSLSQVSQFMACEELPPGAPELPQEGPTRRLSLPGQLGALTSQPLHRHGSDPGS
row,Structure (SMILES),"hERG current change (%, negative = inhibition) at 1uM"
1,COc1cc(NS(=O)(=O)c2csc(C(N)=O)c2)cc(OC)c1,20.5%
2,CCCCNC(=O)c1c(O)c2cccc3c2n(c1=O)CCC3,3.9%
3,O=c1cc(CSc2nnc(COc3cccc4ccccc34)o2)c2ccccc2[nH]1,14.9%
4,O=c1cc(CCl)nc2scc(-c3ccccc3)n12,5.45%
5,CC(C)OP(=O)(c1ccc(N(C)C)cc1)C(O)c1ccncc1 (stereo not drawn),9.88%
6,COc1ccc(-c2ncncc2-c2ccc(OC)c(OC)c2)c(O)c1,10.6%
7,COc1ccc(C2C(C(=O)/C=C/c3ccco3)=C(O)C(=O)N2CCN2CCOCC2)cc1OC (stereo not drawn),12.8%
8,CCCCn1c(N)c(N(CCC(C)C)C(=O)c2ccc(-c3ccc([N+](=O)[O-])cc3)o2)c(=O)[nH]c1=O,3.36%
9,Oc1ccc(NC(=S)N=Nc2c(O)[nH]c3ccccc23)cc1,11.5%
10,CC(C)Cc1ccc(CN2CCCC(NC(=O)CCCN3CCCC3=O)C2)cc1 (stereo not drawn),-14.9%
11,CCOC(=O)Cc1nnc2c(Nc3ccccc3F)nc3nonc3n12,3.46%
12,CN(/N=C/c1ccc(Cl)cc1)c1ncc(Cl)cc1C(F)(F)F,14.6%
13,COc1ccc(Cc2nnc(NC(=O)Nc3ccccc3F)s2)cc1OC,13.2%
14,Cc1cc2cc(CNC(=O)c3cccs3)ccc2n1C,6.73%
15,CCn1c(CNC(=O)c2ccc(OC)c(OC)c2)nnc1SCC(=O)Nc1ccc(OC)cc1,6.99%
16,CCCCN1CC(C(=O)NC2CCCCC2)CC1=O (stereo not drawn),13.6%
17,Cc1ccc(N2CC(C(=O)NC3CC3)CC2=O)cc1Cl (stereo not drawn),13.2%
18,Cc1ccc(S(=O)(=O)CC(=O)N2CCOCC2)cc1,0.468%
19,COC1=CC(=O)C[C@@H](C)[C@]12Oc1c(Cl)c(OC)cc(OC)c1C2=O,3.75%
20,O=C(NNC(=O)c1ccccc1F)c1ccc2nc[nH]c2c1,0.315%
21,Cc1cccc(NC(=O)COc2coc(CN3CCN(c4ccccc4)CC3)cc2=O)c1C,-9.18%
22,COc1ccc(NC(=O)C2CC(=O)OC23CCOC(C)(C)C3)cc1 (stereo not drawn),10.3%
23,O=C(O)CCCCCNS(=O)(=O)c1ccc(Cl)cc1,13.5%

row,Structure (SMILES),"hERG current change (%, negative = inhibition) at 1uM"
1,O=C(NCc1ccco1)C1(c2ccccc2)CCCC1,16.7%
2,COc1ccc(CN(Cc2cccnc2)S(=O)(=O)c2ccc(-n3cnnn3)c(OC)c2)cc1,-15.1%
3,O=C(Nc1cccnc1)c1ccc(-c2ccccc2)cc1,2.75%
4,Cc1ccc(N(C)S(=O)(=O)c2cccc(C(=O)OCC(=O)N3CCCC(C)C3)c2)cc1 (stereo not drawn),-0.403%
5,CC1CN(C2CCCCC2)c2nc3c(c(=O)[nH]c(=O)n3C)n2C1 (stereo not drawn),12.1%
6,CCCCNS(=O)(=O)c1ccc2nc(-c3cccnc3)cc(C(=O)NCCCOC)c2c1,5.42%
7,CNC(=S)NNC(=O)CCn1nc(C)c(Br)c1C,9.11%
8,Cn1c(=O)oc2cc(S(=O)(=O)NCCC(=O)N3CCc4ccccc43)ccc21,5%
9,N/C(=N\OC(=O)CCc1ccccc1)c1cccc(Br)c1,5.8%
10,CCOC(=O)c1cc2sc(C)cc2n1CCCN1C(=O)c2ccccc2C1=O,4.91%
11,O=C(Nc1cccc(OCC(=O)N2CCOCC2)c1)c1ccc(C(F)(F)F)cc1,5.06%
12,CCOC(=O)c1cnc2ccc(C)cc2c1NCCN1CCOCC1.Cl,-25.9%
13,CCc1sc(C(=O)Nc2ccc3c(c2)OCCO3)cc1Br,15.7%
14,COc1ccc(CCNC(=O)c2cccs2)cc1,12.1%
15,O=C(NCCc1ccc2c(c1)OCCO2)c1ccc([N+](=O)[O-])cc1Cl,-2.08%
16,CC1C/C(=C/c2cccn2C)C(=O)/C(=C/c2cccn2C)C1 (stereo not drawn),9.71%
17,CCC1CN(C(=O)NCc2ccccc2)c2cc(C)ccc2O1 (stereo not drawn),4.85%
18,O=C(COC(=O)CCS(=O)(=O)c1ccc(Cl)cc1)Nc1ncc(Cl)cc1Cl,2.93%
19,COc1ccc(OCc2cc(C(=O)NCC(C)Oc3cccnc3)no2)c(Cl)c1 (stereo not drawn),0.744%
20,C=CCn1c(Cc2cccs2)nnc1SCC(=O)Nc1ccc(OC)cc1,-8.42%
21,Cc1ccccc1NC(=O)CN1CCC(NC(=O)Nc2ccccc2)CC1,3.92%
22,CC(=O)Nc1cn(C(C)=O)c(C)n1,4.17%
23,CCCCCCNS(=O)(=O)c1nc2nc(C)cc(C)n2n1,10.2%

row,Structure (SMILES),"hERG current change (%, negative = inhibition) at 1uM"
1,Cc1ccc(-n2cnc3scc(-c4cccs4)c3c2=O)cc1,12%
2,CCC(=O)N1CCN(c2cc(N3CCCC3)c(F)cc2[N+](=O)[O-])CC1,4.27%
3,Cc1csc(=O)n1CC(=O)OCC(=O)c1c(N)n(C)c(=O)n(C)c1=O,7.49%
4,COCCn1c(C)cc(C2=NNC(=Nc3ccccc3)SC2)c1C,-4.24%
5,CC(O)(CS(=O)(=O)c1ccccc1)C(=O)Nc1cccc(C(F)(F)F)c1 (stereo not drawn),-14.6%
6,CC(C)c1ccccc1NC(=S)NC1CCN(Cc2ccccc2)CC1,-11.6%
7,Cc1ccc2nsnc2c1S(=O)(=O)N1CCN(C)CC1,10.8%
8,OCCN1CCN(C(=S)Nc2ccc(SC(F)F)cc2)CC1,7.23%
9,COc1cc(/C=C/C(=O)OCC(=O)NCC2CCCCC2)ccc1O,7.78%
10,CCCCOc1ccc(C(=O)Nc2ccc(SC(F)F)cc2)cc1OC,-3.49%
11,CCOC(=O)C1=C(C)OC(N)=C(C#N)C12C(=O)Nc1ccc(C)cc12 (stereo not drawn),5.38%
12,Cc1cccc(-c2nc(CS(=O)CC(=O)NCCc3ccccc3)c(C)o2)c1 (stereo not drawn),14%
13,O=S(=O)(c1cccc(Br)c1)N1CCN(CCc2ccccc2)CC1,6.35%
14,COc1ccc(N2CCN(c3ccc(Cl)nn3)CC2)cc1,0.746%
15,O=C(N/N=C/c1ccc(-c2ccc([N+](=O)[O-])cc2)o1)[C@H]1C[C@@H]1c1ccccc1,8.54%
16,CC(=O)Nc1cc(-c2nn3c(C)nnc3s2)ccc1C,14.7%
17,COC(=O)Cc1c(O)ccn(Cc2ccc(OC)c(OC)c2)c1=O,5.21%
18,C=C1C[C@]2(O)[C@@]3(C)CCC(=O)C(C)(C)C3=C(O)C(=O)[C@@]2(C)[C@@H]2C(=O)O[C@@](C)(C(=O)OC)C(=O)[C@@]12C,3.54%
19,CC(N)c1ccc(Cl)cc1Cl (stereo not drawn),9.93%
20,Cc1ccc(NC(=O)CCC(=O)N2CCC(C)CC2)c([N+](=O)[O-])c1,5.15%
21,COc1ccc(CCNC2CCN(C)CC2)cc1OC,9.67%
22,Cc1ccc2c(CC(=O)NC3CCCc4ccccc43)coc2c1 (stereo not drawn),12.1%
23,CCOc1ccc(/C=N/n2c(C)nc3ccccc3c2=O)cc1,14.8%

row,Structure (SMILES),"hERG current change (%, negative = inhibition) at 1uM"
1,COc1ccc(OCC(=O)Nc2ccc(N3CCOCC3)cc2)cc1,0.628%
2,CN(C)S(=O)(=O)c1cccc(NC(=O)COC(=O)/C=C/c2ccc3c(c2)OCO3)c1,16.7%
3,CCN1CCCC1CN(Cc1cc2c(C)cc(C)cc2[nH]c1=O)C(=O)NC1CCCCC1 (stereo not drawn),-40.2%
4,N=C1C(c2nc3ccccc3[nH]2)=C(O)CN1c1ccccc1,9%
5,O=C(Nc1ccc(F)cc1)c1ccc(=O)[nH]n1,16%
6,O=C(CCN1CCCCO1)N1CCCC(Nc2ccc(F)cc2)C1 (stereo not drawn),13.4%
7,COC(=O)C(C)(C)ONC(=O)Nc1ccc(Br)cc1,-0.828%
8,Cc1cc(O)c(C(C)C)cc1NC(=O)c1cccc(Cl)c1,4.68%
9,Cc1cc(C(=O)Nn2cnc3ccccc3c2=O)ccc1[N+](=O)[O-],20%
10,CC1CCc2onc(C(=O)O)c2C1 (stereo not drawn),14.4%
11,Cc1ccc(NC(=O)/C(=C/c2cccs2)NC(=O)c2ccco2)cc1,17%
12,Cn1c(=O)c2c(ncn2CC(O)CNc2ccc(Cl)cc2)n(C)c1=O (stereo not drawn),-0.343%
13,Cc1ccc(C2CC(=O)Nc3c2ccc2ccccc32)cc1[N+](=O)[O-] (stereo not drawn),8.82%
14,Fc1ccc(CNc2ncnc3c2cnn3-c2ccccc2)cc1,-2.76%
15,CCN(CC)CCCN(Cc1cc2cc3c(cc2[nH]c1=O)OCO3)C(=S)Nc1ccccc1OC,11.2%
16,COc1c(N2CCN(C(=S)Nc3ccc(F)cc3)C(C)C2)c(F)cc2c(=O)c(C(=O)O)cn(C3CC3)c12 (stereo not drawn),15.8%
17,CN1CCN(C(=O)c2ccc3c(c2)NC(=O)C(N2CCOCC2)S3)CC1 (stereo not drawn),7.58%
18,Cc1onc(-c2ccccc2Cl)c1C(=O)NCc1cccnc1,10.3%
19,COc1ccc(NC(=O)COC(=O)c2cc([N+](=O)[O-])ccc2N2CCOCC2)cc1,10.5%
20,Cc1ccc(NC(=O)c2cc(C)n(-c3ccccc3)c2C)cc1,10.9%
21,CC12CC(NC(=O)N1c1cccc(C(=O)N3CCCCC3)c1)c1ccccc1O2 (stereo not drawn),11%
